# Data: the BET-seq Pho4 binding data (Le et al. 2018)
# The other results are listed elsewhere or left out. The energies were worked out here from pooled read counts, against the library average; single values are noisy.
# Biological target: T1, Pho4 (S. cerevisiae) (UniProt P07270)
# T1 sequence: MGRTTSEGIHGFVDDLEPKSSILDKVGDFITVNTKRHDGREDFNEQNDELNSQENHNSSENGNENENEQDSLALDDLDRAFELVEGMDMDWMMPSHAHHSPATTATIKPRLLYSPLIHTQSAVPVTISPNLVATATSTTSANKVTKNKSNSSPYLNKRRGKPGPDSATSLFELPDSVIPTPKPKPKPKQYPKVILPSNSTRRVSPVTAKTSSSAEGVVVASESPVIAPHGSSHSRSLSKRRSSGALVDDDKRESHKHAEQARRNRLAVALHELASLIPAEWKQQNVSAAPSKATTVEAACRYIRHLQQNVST
# Assay: relative binding free energy (BET-seq); higher = weaker binding
# Settings: reference: library average
row,Sequence,relative binding free energy
1,TATAGCACGTGATTGG,0.08 kcal/mol
2,TTATGCACGTGCAGGA,-0.1 kcal/mol
3,TAAAACACGTGTTTTA,0.04 kcal/mol
4,GGATTCACGTGTGAGA,0.34 kcal/mol
5,CGGCGCACGTGGAGGG,-0.14 kcal/mol
6,AAAAGCACGTGAGGGT,0.18 kcal/mol
7,CGTGGCACGTGTAGCG,-0.06 kcal/mol
8,GGGCCCACGTGGTGGA,-0.17 kcal/mol
9,AAGGTCACGTGAGGTT,0.43 kcal/mol
10,TTATTCACGTGATCTT,0.21 kcal/mol
11,GTATGCACGTGGGATT,-0.07 kcal/mol
12,TTTCACACGTGGTAGG,0.02 kcal/mol
13,GATGGCACGTGGGTTA,-0.08 kcal/mol
14,GTGCTCACGTGATTAG,0.29 kcal/mol
15,TAAGCCACGTGTGATT,0.03 kcal/mol
16,TTCGTCACGTGCATTT,0.08 kcal/mol
17,AGTGTCACGTGGTGGG,0.06 kcal/mol
18,GTGTGCACGTGATAAA,0.24 kcal/mol
19,TGATTCACGTGATGTC,0.31 kcal/mol
20,GAGAGCACGTGGTGCT,0.05 kcal/mol
21,TTGGACACGTGGAGTG,0.03 kcal/mol
22,ATGTTCACGTGGTTGC,0.24 kcal/mol
23,AAGGTCACGTGTTCTA,0.11 kcal/mol

row,Sequence,relative binding free energy
1,GAGCGCACGTGAGGGA,0.21 kcal/mol
2,TGTCGCACGTGTGATG,0.1 kcal/mol
3,TTTCACACGTGAGGTG,0.41 kcal/mol
4,TGGTTCACGTGATCAG,0.39 kcal/mol
5,GTTCGCACGTGATAGG,0.13 kcal/mol
6,GTGTTCACGTGGATTG,0.27 kcal/mol
7,AATGTCACGTGAAGGA,0.26 kcal/mol
8,CGGAGCACGTGTAGAT,0.26 kcal/mol
9,TGTATCACGTGTTGTG,0.11 kcal/mol
10,CATTTCACGTGAAGTT,0.39 kcal/mol
11,TGCGACACGTGGGGGA,-0.07 kcal/mol
12,TATTCCACGTGCTGGT,0.01 kcal/mol
13,ATGATCACGTGGTTAA,-0.01 kcal/mol
14,TGGTTCACGTGTCGGT,0.28 kcal/mol
15,TGGCTCACGTGTGCTG,0.26 kcal/mol
16,GCTTGCACGTGGATGA,0.13 kcal/mol
17,TTTTTCACGTGAGGCC,0.52 kcal/mol
18,GCTATCACGTGTGGTT,0.09 kcal/mol
19,GTTGACACGTGGGATG,0.07 kcal/mol
20,TTGGCCACGTGAGATT,0.18 kcal/mol
21,GTGCTCACGTGTAAGG,0.25 kcal/mol
22,TTTTTCACGTGTGATT,0.33 kcal/mol
23,AGGGGCACGTGTAGTA,-0.01 kcal/mol

row,Sequence,relative binding free energy
1,GTGCTCACGTGGTTGC,0.29 kcal/mol
2,TATATCACGTGGAAAT,0.25 kcal/mol
3,AAGGTCACGTGAGTGA,0.25 kcal/mol
4,GATTTCACGTGTAAGA,0.38 kcal/mol
5,AAACGCACGTGGTGGG,-0.25 kcal/mol
6,TATTTCACGTGGAGGA,0.11 kcal/mol
7,GTTATCACGTGGAAGT,0.21 kcal/mol
8,GGGTTCACGTGTCTCG,0.34 kcal/mol
9,TTTAACACGTGTGCAG,0.06 kcal/mol
10,TTGTACACGTGTTTCT,-0.01 kcal/mol
11,GCGATCACGTGTAGGG,0.22 kcal/mol
12,TGTGTCACGTGGAGCA,-0.09 kcal/mol
13,TAAATCACGTGGCGGT,0.12 kcal/mol
14,AGAGTCACGTGTGTGG,0.18 kcal/mol
15,ACTGTCACGTGGGGAG,-0.13 kcal/mol
16,CGTGTCACGTGGAGGA,-0.02 kcal/mol
17,CTTGGCACGTGAAGGG,0.17 kcal/mol
18,AACGACACGTGGGTAG,0 kcal/mol
19,AAATTCACGTGAATAT,0.42 kcal/mol
20,AGGTCCACGTGGGGAT,-0.12 kcal/mol
21,GAGCTCACGTGGTCGT,0.44 kcal/mol
22,TATTCCACGTGGGGGT,0.01 kcal/mol
23,ATAAGCACGTGGCGCG,-0.02 kcal/mol

row,Sequence,relative binding free energy
1,CTTGTCACGTGGTTCG,0.05 kcal/mol
2,GTTTACACGTGAATAT,0.42 kcal/mol
3,GAAAGCACGTGTAGTT,0.03 kcal/mol
4,TTCGCCACGTGGTTGG,-0.17 kcal/mol
5,TGGTGCACGTGATGCA,0.07 kcal/mol
6,GATATCACGTGGATGG,0.25 kcal/mol
7,TGTCGCACGTGAAGGT,0.19 kcal/mol
8,TGTCTCACGTGTAGAG,0.16 kcal/mol
9,TGTTACACGTGTCGGC,0.26 kcal/mol
10,ATATACACGTGTTGGT,0.01 kcal/mol
11,TTGGTCACGTGTGAAG,0.23 kcal/mol
12,CCGGTCACGTGTGGTA,0.13 kcal/mol
13,ATAAGCACGTGGATTT,-0.12 kcal/mol
14,ATGTGCACGTGCTTGA,-0.07 kcal/mol
15,CTTATCACGTGGTGTA,-0.02 kcal/mol
16,TTGGACACGTGAAATG,0.22 kcal/mol
17,GAGGGCACGTGATGGT,0.09 kcal/mol
18,TGAGTCACGTGTTGGA,0.03 kcal/mol
19,GGGTGCACGTGGATTC,0.21 kcal/mol
20,ATTGGCACGTGAGCGC,0.06 kcal/mol
21,GGTTACACGTGTATTG,0.04 kcal/mol
22,ATGTACACGTGGCTGT,-0.02 kcal/mol
23,GTGGTCACGTGGGTTA,0.01 kcal/mol

row,Sequence,relative binding free energy
1,ATTTTCACGTGTATGT,0.24 kcal/mol
2,GGCCGCACGTGGGGGG,-0.17 kcal/mol
3,TAGTGCACGTGTCAAG,0.05 kcal/mol
4,GATTTCACGTGGTAAA,0.37 kcal/mol
5,GGCAGCACGTGGTGAA,0 kcal/mol
6,TGAACCACGTGGGTTT,-0.05 kcal/mol
7,GAATACACGTGGAGTG,-0.06 kcal/mol
8,AGTAGCACGTGTTAGT,-0.2 kcal/mol
9,GGCGCCACGTGGGATG,-0.11 kcal/mol
10,AGTGGCACGTGGTGCT,-0.25 kcal/mol
11,TTCTTCACGTGGTTGT,0.32 kcal/mol
12,CAGTTCACGTGTGAAT,0.38 kcal/mol
13,CAGGGCACGTGTTGGT,-0.06 kcal/mol
14,CGTGACACGTGGGTCT,-0.08 kcal/mol
15,ACTCTCACGTGGGGGT,0.11 kcal/mol
16,TGGCACACGTGGCTTG,0.08 kcal/mol
17,GGGGCCACGTGCGTGT,-0.14 kcal/mol
18,CATGTCACGTGGTTAT,-0.02 kcal/mol
19,ACTTGCACGTGGGTAA,-0.1 kcal/mol
20,GTACGCACGTGGAATG,0.1 kcal/mol
21,ATGTTCACGTGAGGTT,0.25 kcal/mol
22,GGCGGCACGTGAGGCG,0.23 kcal/mol
23,ATGTGCACGTGCATGG,-0.13 kcal/mol
